Source: PubChem BioAssay AID504466 (National Center for Advancing Translational Sciences (NCATS), 2011)
The whole screen tested about 330,000 compounds, of which about 4,200 (1.3%) were called active. The inconclusive results got no clear call from the source; some entries with a clear call stand among them for comparison. Calls follow the shape of the dose curve; as a rule, active = well fitted activation curve with a large enough effect; inconclusive = small, poorly fitted or top-dose-only effect; inactive = no such curve, though single readings can be large or run the other way. Potencies of inconclusive entries are doubtful fits and often do not repeat.

assay: qHTS screen for small molecules that induce genotoxicity in human embryonic kidney (HEK293T) cells expressing luciferase-tagged ELG1; details: HEK293T ELG1-luciferase reporter, luminescence, 16 h; series mostly up to 46 µM; also: nearly all actives have a fitted effect of over 60% in size
Method in brief: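 HEK293T cells expressing luciferase-tagged ELG1 were treated with compound or DMSO for 16 hr at 37°C. Luciferase activity was then read after 30 min with ONE-Glo at room temperature; rising signal flags genetic stress.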
Potency is read from the fitted curve at half-maximal effect; tags tell the direction and shape of the fitted curve.

| SMILES | Potency |
| --- | --- |
| NC(=S)N/N=C/c1ccccc1OC(=O)/C=C/c1ccccc1 | inactive |
| CCc1nnc(NC(=O)OCc2ccccc2)s1 | inconclusive: 23.1 µM [activator, single point] |
| Cn1c(=O)c(=O)n(C)c2cc([N+](=O)[O-])c([N+](=O)[O-])cc21 | inconclusive: 20.6 µM [activator, partial curve, poor fit] |
| CC(=O)N1CCc2cc(NC(=O)c3ccc(C)cc3)ccc21 | inconclusive: 5.62 µM [activator, partial curve, poor fit] |
| O=C(COC(=O)C1CC2C=CC1C2)Nc1ccccc1F (stereo unspecified) | inconclusive: 23.1 µM [activator, partial curve, poor fit] |
| CCCC(=O)Nc1ccc(NC(=O)C2CC2)cn1 | inconclusive: 16.4 µM [activator, partial curve, poor fit] |
| CCn1cc(C(=O)N(C)c2ccc(OC)cc2OC)c2cc(OC)c(OC)cc2c1=O | inactive |
| CC(=NCc1ccco1)c1c(C)[nH]n(-c2nc3ccccc3s2)c1=O | active: 3.66 µM |
| O=C(COC(=O)Cn1[nH]c(=O)c2ccccc2c1=O)NNC(=O)c1ccc(Br)cc1 | inactive |
| O=C(NCc1ccc2c(c1)CCO2)Nc1ccccc1 | inconclusive: 13 µM [activator, partial curve] |
| CC(=O)O/N=C(\N)c1ccc(-c2csnn2)cc1 | inconclusive: 20.6 µM [activator, partial curve, poor fit] |
| Cn1c(SCc2ccccc2F)nc2cccnc21 | inconclusive: 9.2 µM [activator, partial curve] |
| CN(C)S(=O)(=O)c1cccc(-c2cn3cc(Cl)ccc3n2)c1 | inconclusive: 18.4 µM [activator, partial curve, poor fit] |
| CC(=O)N[C@@H](C)c1nc2ccccc2n1CCCN1CCN(c2nc(-c3ccc(C)cc3)cs2)CC1 | inactive |
| O=C(/C=C/c1cccc([N+](=O)[O-])c1)c1cccs1 | inactive |
| C=CCNC(=O)N[C@@H](CCSC)C(=O)OC | inactive |
| Clc1ccc(-c2csc(N/N=C\c3cccnc3)n2)cc1 | inactive |
| O=C(O)CCc1ccc(S(=O)(=O)Nc2ccccc2C(=O)NCCc2ccccc2)cc1 | inconclusive: 20.6 µM [activator, partial curve] |
| CCCCCOc1ccc(Cl)cc1CN1CCOCC1 | active: 20.6 µM |
| COc1cc2c(cc1OC)-c1cc(Nc3ccccc3Br)nc(=O)n1CC2 | inconclusive: 16.4 µM [activator, partial curve, poor fit] |
| COc1ccc(CCNC(=O)CNC(=O)Cn2cnc3sc(C)c(C)c3c2=O)cc1OC | inconclusive: 2.59 µM [activator, partial curve, poor fit] |
| O=C(Cn1cnc2c(nnn2-c2ccccc2)c1=O)N1CCCc2ccccc21 | inactive |
| COc1cc(C(=O)O/N=C(\N)c2ccccn2)cc(OC)c1OC | inconclusive: 29.1 µM [activator, partial curve, poor fit] |
| CCOc1ccc(/C=C/C2=NNC(=O)CC2)cc1 | active: 18.3 µM |

| SMILES | Potency |
| --- | --- |
| O=C(Nc1ccc2ccccc2c1)c1ccc(Br)o1 | inconclusive: 1.83 µM [activator, full curve] |
| Cc1ccc2nc(-c3ccc(NC(=O)CN4CCN(C(=O)c5ccco5)CC4)cc3)sc2c1 | inconclusive: 18.4 µM [activator, partial curve, poor fit] |
| COc1ccc(-n2nc3ccc(NS(C)(=O)=O)cc3n2)cc1Cl | active: 16.4 µM |
| CCOc1cc(C(=O)NCCN2C(=O)S/C(=C\c3cccnc3)C2=O)cc(OCC)c1OCC | inactive |
| CS(=O)(=O)N1CCN(c2ccc(NC(=S)NC(=O)c3ccccc3[N+](=O)[O-])cc2)CC1 | inactive |
| CCn1c(O)c(C=Nc2ccccc2)sc1=S | inconclusive: 7.3 µM [activator, partial curve] |
| O=C(CSc1cc([N+](=O)[O-])cc(S(=O)(=O)Cc2ccccc2)c1)NC1CC1 | inactive |
| Cc1ccc(C(=O)ONc2ccc(N=NC(=O)c3ccccc3O)cc2)cc1 | inconclusive: 4.47 µM [activator, partial curve] |
| Brc1ccc(/C=N/Nc2ccccc2)cc1 | inconclusive: 18.4 µM [activator, partial curve, poor fit] |
| CC(=NCc1ccc2c(c1)OCO2)C1=C(O)c2ccccc2C1=O | inconclusive: 29.1 µM [activator, single point] |
| CCOc1ccc2nc(SCC(=O)N3CCCCCC3)c(C#N)cc2c1 | inactive |
| O=C(NCCC1=CCCCC1)c1cnc2n(c1=O)CCS2 | inconclusive: 32.6 µM [activator, single point] |
| O=C(Nc1ccc2c(c1)nc1n2CCOC1)C1CCCCC1 | inconclusive: 20.6 µM [activator, partial curve, poor fit] |
| CCOC(=O)[C@@H]1[C@H]2COc3cc(OC)ccc3[C@H]2N2C(=O)N(c3ccc(C(F)(F)F)cc3)C(=O)[C@]12C | inactive |
| Cc1ccc2c(N)c(C(=O)c3ccccc3)sc2n1 | inconclusive: 20.6 µM [activator, partial curve, poor fit] |
| O=C(NCCN1CCOCC1)c1cc(-c2cccs2)on1 | inconclusive: 32.6 µM [activator, partial curve, poor fit] |
| CCCCn1c(=O)[nH]c(=O)c2c(C(=O)OCC)cc(-c3ccc(OC(F)F)cc3)nc21 | inconclusive: 29.1 µM [activator, single point] |
| N#Cc1cc2c(nc1Cl)CCCC2 | inactive |
| O=C(Nc1nc(-c2ccccn2)cs1)C12CC3CC(CC(O)(C3)C1)C2 | inconclusive: 2.31 µM [activator, full curve, poor fit] |
| CCN(CC)CCOc1c(Br)ccc2c1sc1nc3n(c(=O)c12)CCC3 | inconclusive: 25.9 µM [activator, partial curve, poor fit] |
| NC(=S)N/N=C/c1cccc(O)c1O | inconclusive: 11.6 µM [activator, partial curve, poor fit] |
| NS(=O)(=O)c1ccccc1NC(=O)c1c(O)c2ccccc2[nH]c1=O | inconclusive: 2.59 µM [activator, full curve] |
| COCCN(Cc1cc2cc(C)ccc2nc1Cl)C(=O)Nc1ccccc1OC | inactive |
| CS/C(N)=N/N=C/c1ccc([N+](=O)[O-])cc1 | inconclusive: 10.3 µM [activator, partial curve, poor fit] |

| SMILES | Potency |
| --- | --- |
| N#CCCN1CCN(C(=S)c2ccc(-c3ccc(Cl)cc3)o2)CC1 | inconclusive: 18.4 µM [activator, single point] |
| O=C(CN1CCc2ccccc2C1)Nc1ccc(F)cc1 | inactive |
| Cc1cc(C)cc(N/C(N)=N/c2nc(C)cc(C)n2)c1 | inactive |
| CCCCCCCCNC(=O)CC(NS(=O)(=O)c1ccc(NC(C)=O)cc1)C(C)C (stereo unspecified) | inactive |
| Cc1cccc(-n2c(C)cc(/C=C3\NC(=O)NC3=O)c2C)c1 | inconclusive: 20.6 µM [activator, partial curve, poor fit] |
| O=C(O)c1ccc(NS(=O)(=O)c2cc(Cl)ccc2Cl)cc1 | inactive |
| CCOc1ccc(C(=O)Nc2cc(C)on2)cc1 | inconclusive: 0.92 µM [activator, full curve] |
| O=C(COc1ccccc1Br)NCc1ccccn1 | inconclusive: 23.1 µM [activator, single point] |
| COCC(C)n1c(C)cc(C(=O)COC(=O)c2ccc3c(c2)NC(=O)CS3)c1C (stereo unspecified) | inactive |
| COc1ccc(C(C(=O)NCC2CCCO2)N(Cc2ccco2)C(=O)c2snc(C(N)=O)c2N)cc1OC (stereo unspecified) | inactive |
| Cc1c(C(=O)NCC(C)C)sc2nc(-c3ccc(F)cc3)cn12 | inconclusive: 4.61 µM [activator, partial curve] |
| O=C(Nc1nccs1)c1ccc(COc2ccccc2)o1 | inconclusive: 16.4 µM [activator, partial curve] |
| O=C1C2CC=CCC2C(=O)N1Cc1nnc(-c2ccc(Cl)cc2)o1 (stereo unspecified) | inconclusive: 20.6 µM [activator, partial curve, poor fit] |
| O=C(CCl)Nc1cc(S(=O)(=O)N2CCCCCC2)ccc1Cl | inactive |
| O=C(OCc1nnc(-c2ccc(Cl)cc2)o1)c1ccc(=O)n(Cc2ccccc2)n1 | inconclusive: 18.4 µM [activator, partial curve, poor fit] |
| COc1ccc([C@H]2CC(=O)C=C(c3ccc(OC)cc3OC)C2)cc1 | inconclusive: 18.3 µM [activator, partial curve, poor fit] |
| CCOC(=O)c1c(C)[nH]c(C)c1C(=O)CSc1nnc(-c2ccco2)n1Cc1ccccc1 | inactive |
| COc1ccc(CCNC(=O)/C(C#N)=C2\N=C(NC(=O)c3cccs3)c3ccccc32)cc1 | inconclusive: 16.4 µM [activator, single point] |
| Cc1ccc(OCC(=O)c2cc(C)n(C)c2C)c([N+](=O)[O-])n1 | inconclusive: 25.9 µM [activator, partial curve, poor fit] |
| COc1cc(/C=C2\SC(=S)N(CCC(=O)NCCc3ccccc3)C2=O)cc(OC)c1OC | inactive |
| O=C(O)CCCC(=O)Nc1ccc2c(c1)oc1ccccc12 | inactive |
| Cc1ccc(-c2cc(-c3ccccc3[N+](=O)[O-])[nH]n2)c(O)c1 | inconclusive: 9.2 µM [activator, partial curve, poor fit] |
| c1ccc(SCc2cc(-c3ccccc3)no2)cc1 | inconclusive: 16.4 µM [activator, partial curve] |
